Experimental data: the supplement of paper PMC6828730
Structures can show the parent of a compound that is named as a salt. Some of the results follow. Many values rest on one well or one pass, so single values are uncertain.

Assays:
[1] = system: hiPSC-derived cardiomyocytes; experiment: time to death of most cells in well after compound addition (days); higher = less cardiotoxic; details: screen: 1; 10 µM
[2] = system: hiPSC-derived cardiomyocytes; experiment: time to death of most cells in well after compound addition (days); higher = less cardiotoxic; extreme values may be limits of the assay; details: 10 µM

Structure (SMILES) | time to death of most cells in well [1] | time to death of most cells in well ([2]; screen: 2) | time to death of most cells in well ([2]; screen: 3) | time to death of most cells in well ([2]; screen: 4)
CN1CCC(CNc2ccc3ncc(-c4cccc(OC(F)(F)F)c4)n3n2)CC1 [SGI-1776 free base] | 1.5 | 0.5 | 0.5 | 1
O=C(Nc1nc2cccc(-c3ccc(CN4CCS(=O)(=O)CC4)cc3)n2n1)C1CC1 [Filgotinib (GLPG0634)] | 3 | 2 | 3 | > 7
C=CC(=O)Nc1cccc(Nc2nc(Nc3ccc(N4CCN(C(C)=O)CC4)cc3OC)ncc2C(F)(F)F)c1 [Rociletinib (CO-1686, AVL-301)] | > 7 | > 7 | > 7 | > 7
CN(C(Cc1ccc(OS(=O)(=O)c2cccc3cnccc23)cc1)C(=O)N1CCN(c2ccccc2)CC1)S(=O)(=O)c1cccc2cnccc12 (stereo not drawn) | > 7 | > 7 | > 7 | > 7
CS(=O)(=O)N1CCc2c(-c3cnc(N)nc3)nc(N3CCOCC3)nc21 | 5 | 3.5 | > 7 | > 7
CN(C)C/C=C/C(=O)Nc1cc2c(Nc3ccc(F)c(Cl)c3)ncnc2cc1O[C@H]1CCOC1 [Afatinib (BIBW2992)] | 3 | 3.5 | 3.5 | 4
Nc1nc(Nc2ccc(S(N)(=O)=O)cc2)nn1C(=O)c1c(F)cccc1F | 2.5 | 1.5 | 3 | > 7
CCn1c(-c2nonc2N)nc2c(C#CC(C)(C)O)ncc(OC[C@H]3CCCNC3)c21 | > 7 | 2.5 | > 7 | > 7
CCCS(=O)(=O)Nc1ccc(F)c(C(=O)c2c[nH]c3ncc(Cl)cc23)c1F | 3 | > 7 | > 7 | > 7
CN1CCN(c2ccc(-c3ccncc3-c3cc(F)c(O)c(F)c3)cc2)CC1 | > 7 | > 7 | > 7 | > 7
O=C(Cc1ccc(-c2ccc(OCCN3CCOCC3)cc2)cn1)NCc1ccccc1 | > 7 | > 7 | > 7 | > 7
Cc1cc(O)c2c(c1)C(=O)c1cccc(O)c1C2=O [Chrysophanic Acid] | 5.5 | 4 | > 7 | > 7
CN(C)CCCn1cc(C2=C(c3c[nH]c4ccccc34)C(=O)NC2=O)c2ccccc21 | > 7 | > 7 | > 7 | > 7
CNC(=O)c1cc(Oc2ccc3nc(N[C@@H]4CCCC[C@H]4O)sc3c2)ccn1 | > 7 | > 7 | > 7 | > 7
COc1cccc(-n2c(=O)[nH]c3cc(Cl)n(-c4ccc(-c5cccc(OC)c5O)cc4)c3c2=O)c1 | > 7 | > 7 | > 7 | > 7
CC(C)(C)c1cc(C=C(C#N)C#N)cc(Br)c1O | > 7 | > 7 | > 7 | > 7
COc1ccc(S(=O)(=O)N(CCO)c2ccccc2CN(C)C/C=C/c2ccc(Cl)cc2)cc1 [KN-93 Phosphate] | 3.5 | 3 | 3 | 6
O=C1C(c2c(O)[nH]c3ccccc23)=Nc2ccccc21 [Indirubin] | > 7 | > 7 | > 7 | > 7
CS(=O)(=O)c1cccc(CNc2nc(Nc3ccc4c(c3)CCC(=O)N4)ncc2C(F)(F)F)c1 | > 7 | > 7 | > 7 | > 7
C=CC(=O)Nc1cccc(Oc2nc(Nc3ccc(N4CCN(C)CC4)cc3OC)ncc2Cl)c1 | 3.5 | 1 | 3.5 | > 7
COc1cc2ncnc(Nc3ccc(F)c(Cl)c3)c2cc1OCCCN1CCOCC1 [Gefitinib (ZD1839)] | 4 | > 7 | > 7 | > 7

Structure (SMILES) | time to death of most cells in well [1] | time to death of most cells in well ([2]; screen: 2) | time to death of most cells in well ([2]; screen: 3) | time to death of most cells in well ([2]; screen: 4)
N#Cc1c(O)c2c(-c3ccc(-c4ccccc4O)cc3)csc2[nH]c1=O | > 7 | > 7 | > 7 | > 7
CNc1nc(Nc2cn(C(C)(C)C#N)nc2C)ncc1C(F)(F)F | 3 | 1 | > 7 | > 7
O=C1NC(=O)/C(=C/c2ccc3c(c2)OC(F)(F)O3)S1 | > 7 | > 7 | > 7 | > 7
O=c1c(-c2ccc(O)cc2)coc2cc(O)cc(O)c12 [Genistein] | > 7 | > 7 | > 7 | > 7
CC(C)n1nc(-c2cc3cc(O)ccc3[nH]2)c2c(N)ncnc21 [Torkinib (PP242)] | > 7 | 3 | > 7 | > 7
COc1cc(N2CCC(N(C)C)CC2)ccc1Nc1ncc(Cl)c(Nc2ccccc2P(C)(C)=O)n1 | > 7 | > 7 | 4 | 2.5
Nc1cc(C(F)(F)F)c(-c2cc(N3CCOCC3)nc(N3CCOCC3)n2)cn1 [Buparlisib (BKM120, NVP-BKM120)] | 4 | 2.5 | > 7 | > 7
Cc1ncc(-c2ccnc(Nc3ccc(S(C)(=O)=O)cc3)n2)n1C(C)C | 6.5 | 3.5 | 6 | > 7
CCc1cccc(CC)c1NC(=O)N1Cc2[nH]nc(NC(=O)c3ccc(N4CCN(C)CC4)cc3)c2C1 | > 7 | > 7 | > 7 | > 7
CO[C@@H](C(=O)N1Cc2[nH]nc(NC(=O)c3ccc(N4CCN(C)CC4)cc3)c2C1)c1ccccc1 | > 7 | 3.5 | > 7 | > 7
CC(C)(O)CC(=O)NCCn1ccc2ncnc(Nc3ccc(Oc4cccc(C(F)(F)F)c4)c(Cl)c3)c21 | > 7 | 5 | > 7 | > 7
C#Cc1cccc(Nc2ncnc3cc4c(cc23)OCCOCCOCCO4)c1 [Icotinib] | > 7 | > 7 | > 7 | > 7
O=Nc1c(-c2c(O)[nH]c3cc(Br)ccc23)[nH]c2ccccc12 | 6 | 3 | 6.5 | 4
Cc1c(CN2CCN(C(=O)[C@H](C)O)CC2)sc2c(N3CCOCC3)nc(-c3cnc(N)nc3)nc12 [Apitolisib (GDC-0980, RG7422)] | 4 | 2 | > 7 | 6
CSc1cccc(Nc2ncc3cc(-c4c(Cl)cccc4Cl)c(=O)n(C)c3n2)c1 | 3 | 2.5 | > 7 | > 7
CNC(=O)CN1CCC(Oc2cc3c(Nc4cccc(Cl)c4F)ncnc3cc2OC)CC1 [Sapitinib (AZD8931)] | > 7 | 6 | > 7 | > 7
COc1cc2ncnc(Nc3cccc(Cl)c3)c2cc1OC [AG-1478 (Tyrphostin AG-1478)] | > 7 | > 7 | > 7 | > 7
O=C1NC(=O)[C@@H](c2cn3c4c(cccc24)CCC3)[C@@H]1c1c[nH]c2ccccc12 [Tivantinib (ARQ 197)] | 2 | > 7 | > 7 | > 7
COc1ccc(S(=O)(=O)N(C(C)=O)c2ccccc2/C=C/c2cc[n+]([O-])cc2)cc1 | > 7 | > 7 | > 7 | > 7
C=CC(=O)Nc1ccc2ncnc(Nc3ccc(OCc4cccc(F)c4)c(Cl)c3)c2c1 | 6 | > 7 | > 7 | > 7
CC(C)CC(=O)Nc1n[nH]c2c1CN(C(=O)C1CCN(C)CC1)C2(C)C | 1.5 | 2 | 3.5 | > 7

Structure (SMILES) | time to death of most cells in well [1] | time to death of most cells in well ([2]; screen: 2) | time to death of most cells in well ([2]; screen: 3) | time to death of most cells in well ([2]; screen: 4)
NC1(Cc2ccc(Cl)cc2)CCN(c2ncnc3[nH]ccc23)CC1 | 3 | 6.5 | > 7 | > 7
COc1ccc(F)c(F)c1C(=O)c1cnc(NC2CCN(S(C)(=O)=O)CC2)nc1N | 2 | 2.5 | 6.5 | > 7
Cc1[nH]c(/C=C2\C(=O)Nc3ccc(S(=O)(=O)N(C)c4cccc(Cl)c4)cc32)c(C)c1C(=O)N1CCN(C)CC1 | > 7 | 4.5 | 4 | > 7
CNC(=O)c1ccccc1Nc1nc(Nc2ccc(N3CCOCC3)cc2OC)ncc1Cl | > 7 | > 7 | > 7 | > 7
Cn1cnc(-c2cc3nccc(Oc4ccc(NC(=S)NC(=O)Cc5ccccc5)cc4F)c3s2)c1 | > 7 | > 7 | > 7 | > 7
O=c1cc(N2CCOCC2)oc2c(-c3ccccc3)cccc12 | 3.5 | > 7 | > 7 | 4
C/C(O)=C(\C#N)C(=O)Nc1cc(Br)ccc1Br | 4.5 | > 7 | > 7 | > 7
CC(C)(C#N)c1ccc(N2C(=O)OCc3cnc4ccc(-c5cnc6ccccc6c5)cc4c32)cc1 | > 7 | 3.5 | > 7 | > 7
COc1cc2ncnc(Nc3ccc(F)c(Cl)c3)c2cc1NC(=O)/C=C/CN1CCCCC1 | 3 | 3 | 3.5 | > 7
Cc1cc(F)c(Nc2ncnc3cc(OCc4ccccc4)ccc23)cc1O | 2.5 | 4 | > 7 | > 7
CCCNC(=O)Nc1ccc(Oc2ncnc3cc(OC)c(OC)cc23)cc1Cl | > 7 | > 7 | > 7 | > 7
O=C(/C=C/c1ccc(O)c(O)c1)c1ccc(O)cc1O [Butein] | > 7 | > 7 | > 7 | > 7
c1cc(-c2cnn3cc(-c4ccc(OCCN5CCCCC5)cc4)cnc23)ccn1 [Dorsomorphin 2HCl] | 3.5 | > 7 | > 7 | > 7
COc1cc(N2CCC(N3CCN(C)CC3)CC2)ccc1Nc1ncnc(Nc2ccccc2S(=O)(=O)C(C)C)n1 | > 7 | > 7 | > 7 | > 7
COc1cc2ncnc(Oc3ccc(CC(=O)Nc4cnn(C(C)C)c4)cc3)c2cc1OC | > 7 | > 7 | > 7 | > 7
O=S(=O)(NCCNCC=Cc1ccc(Br)cc1)c1cccc2cnccc12 | 6.5 | 5 | > 7 | > 7
COC(=O)Nc1ccc(-c2nc(N3CCOCC3)c3cnn(C4CCN(C(=O)OC)CC4)c3n2)cc1 | 6 | 4.5 | > 7 | > 7
Cn1cc(C2=C(c3cn(C4CCN(Cc5ccccn5)CC4)c4ccccc34)C(=O)NC2=O)c2ccccc21 | 5 | 5 | > 7 | > 7
N=C(N)NC(=N)NCCc1ccccc1 [Phenformin HCl] | 6.5 | 6.5 | > 7 | > 7
CCOc1ccn(-c2ccc(F)cc2)c(=O)c1C(=O)Nc1ccc(Oc2ccnc(N)c2Cl)c(F)c1 | 5.5 | 6.5 | > 7 | > 7
